Laboratory results published in PubChem BioAssay AID588795 (National Center for Advancing Translational Sciences (NCATS), 2011).
Hit rate of the full screen: of about 390,000 compounds, about 1,400 (0.36%) were called active. Inconclusive means that the source gave no clear call. Such entries were picked first, then a sample of the others. The call rests on the fitted dose curve; in most records, active means well fitted inhibition curve with a large enough effect; inconclusive means small, poorly fitted or top-dose-only effect; inactive means no such curve, though single readings can be large or run the other way. Potencies of inconclusive entries are doubtful fits and often do not repeat.

molecular target: Flap endonuclease 1 (Homo sapiens) (UniProt P39748); experiment: qHTS Assay for the Inhibitors of Human Flap endonuclease 1 (FEN1).; further: nearly all actives have a fitted effect of over 65% in size; conditions: Recombinant FEN1 flap cleavage, fluorescence, 15 min; series mostly up to 114 µM; activity change, negative = inhibition: at the top concentration
Chain of UniProt P39748 (P39748 whole entry, looked up): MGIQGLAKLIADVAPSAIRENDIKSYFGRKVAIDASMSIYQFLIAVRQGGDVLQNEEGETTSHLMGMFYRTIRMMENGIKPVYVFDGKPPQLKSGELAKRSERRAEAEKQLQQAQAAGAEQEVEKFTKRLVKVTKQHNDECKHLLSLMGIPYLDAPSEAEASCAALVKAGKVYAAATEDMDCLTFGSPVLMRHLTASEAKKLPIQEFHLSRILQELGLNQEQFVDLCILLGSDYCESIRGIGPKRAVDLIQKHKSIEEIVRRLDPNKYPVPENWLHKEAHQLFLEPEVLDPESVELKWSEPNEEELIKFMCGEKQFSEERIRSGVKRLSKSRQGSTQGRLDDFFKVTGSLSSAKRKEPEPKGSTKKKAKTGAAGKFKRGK
Method in brief: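 FEN1 at 10 nM, compound pretreatment for 15 min (room temperature), 50 nM final substrate to initiate; endpoint reads at 0 and 15 min; DMSO-only plates used as vehicle background.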
On the % scale 0 is the no-effect control and ±100 the full control effect; potency means the concentration at half of the fitted maximal effect; tags describe the fitted curve by direction and shape.

| SMILES | Potency | activity change, negative = inhibition |
| --- | --- | --- |
| CC1=C(C#N)C(c2ccccc2)C2=C(N1)c1ccccc1C2=O (configuration not stated) | inconclusive: 50.1 µM [inhibitor, partial curve, poor fit] | – |
| CCOCCCN(Cc1ccco1)C(=O)c1cc2c(s1)-c1c(C)cccc1OC2 | – | inactive: -17.1% |
| CCc1ccc(C2CC(=O)Nc3c2c(=O)n(C)c2ncnn32)cc1 (configuration not stated) | – | inactive: 18.9% |
| CCOc1ccccc1N1CSC2=C(C#N)C(c3c(OC)ccc4ccccc34)CC(=O)N2C1 (configuration not stated) | inconclusive: 11.2 µM [inhibitor, full curve] | – |
| CCCCOc1ccc(C(=O)N/C(=C/C=C/c2ccccc2)C(=O)NCCO)cc1 | inconclusive: 79.4 µM [inhibitor, partial curve, poor fit] | – |
| O=C(CCCN1C(=O)/C(=C/c2ccco2)SC1=S)Nc1ccccc1C(=O)O | inconclusive: 39.8 µM [inhibitor, full curve] | – |
| Cc1ccc(Nc2ncccc2C(=O)NCc2cccs2)c(C)c1 | inconclusive: 44.7 µM [inhibitor, partial curve, poor fit] | – |
| Cc1cccc(N2CCN(C(=O)/C=C/c3cccs3)CC2)c1C | inconclusive: 89.1 µM [inhibitor, partial curve, poor fit] | – |
| CCCCN(C(=O)c1ccc(S(=O)(=O)N(C)C)cc1)c1ccccc1 | inconclusive: 7.94 µM [inhibitor, full curve] | – |
| CCc1ccc(OCC(=O)N(Cc2ccc(C(C)C)cc2)C2CCS(=O)(=O)C2)cc1 (configuration not stated) | inconclusive: 50.1 µM [inhibitor, partial curve, poor fit] | – |
| CN(C)c1ccc(/C=C(\C#N)C(=O)OCC(=O)N(C)C2CCS(=O)(=O)C2)cc1 (configuration not stated) | – | inactive: 3.53% |
| Cc1ccc2nc(-c3ccc(NS(C)(=O)=O)cc3)cc(-c3ccccc3)c2c1 | inconclusive: 79.4 µM [inhibitor, partial curve, poor fit] | – |
| O=C(Cn1cnc2sc(-c3ccccc3)cc2c1=O)NCc1ccco1 | inconclusive: 56.2 µM [inhibitor, partial curve] | – |
| Cc1ccc2c(CC(=O)N(Cc3ccc(N(C)C)cc3)Cc3ccco3)coc2c1C | – | inactive: -0.0998% |
| Cc1ccc2oc(-c3ccc(C)c(NC(=O)/C=C/c4ccco4)c3)nc2c1 | – | inactive: -17.1% |
| O=c1[nH]cnc2n[nH]nc12 | – | inactive: 4.99% |
| CCOC(=O)c1c(NC(NC(C)=O)C(Cl)(Cl)Cl)sc2c1CCCC2 (configuration not stated) | inconclusive: 89.1 µM [inhibitor, partial curve, poor fit] | – |
| O=C(NCc1ccco1)c1cccc2c1C(=O)c1ccc(N3CCCC3)cc1S2(=O)=O | inconclusive: 89.1 µM [inhibitor, partial curve, poor fit] | – |
| Cc1ccc2c(c1)-c1cc(C)nn1C(c1ccc3c(c1)OCO3)N2 (configuration not stated) | inconclusive: 89.1 µM [inhibitor, partial curve, poor fit] | – |
| Cc1nc(-c2ccc(S(=O)(=O)N3CCN(Cc4ccccc4)CC3)s2)cs1 | inconclusive: 50.1 µM [inhibitor, partial curve, poor fit] | – |
| CC(C)N1CCc2c(sc(NC(=O)c3cc4cc([N+](=O)[O-])ccc4s3)c2C(N)=O)C1 | inconclusive: 15.8 µM [inhibitor, full curve, poor fit] | – |

| SMILES | Potency | activity change, negative = inhibition |
| --- | --- | --- |
| Cn1cnc(S(=O)(=O)N2CCCC(C(=O)NCc3ccccc3)C2)c1 (configuration not stated) | – | inactive: 19.8% |
| COc1ccc(-c2cc(OC)c3c(C)oc(C)c3c(=O)c2)cc1OC | inconclusive: 79.4 µM [inhibitor, partial curve] | – |
| Cc1csc(NC(=O)CCNC(=O)c2ccc([N+](=O)[O-])cc2)n1 | – | inactive: 3.72% |
| Cc1ccc(CN2C(=O)N/C(=C\c3ccc(-c4ccc(C(=O)O)cc4C)o3)C2=O)cc1 | active: 44.7 µM | – |
| COc1ccc(C2c3c(ncn(CCCO)c3=N)Oc3ccc4ccccc4c32)cc1 (configuration not stated) | inconclusive: 89.1 µM [inhibitor, partial curve, poor fit] | – |
| CCCCCCCCCCCCCCCCn1cc[n+](C)c1 | inconclusive: 89.1 µM [inhibitor, single point] | – |
| CCOC(=O)C1=C(C)N(c2ccccc2)C(=O)/C1=C\c1ccc(O)c(OC)c1 | inconclusive: 56.2 µM [inhibitor, partial curve, poor fit] | – |
| CC(=O)N1CCOc2cc(S(=O)(=O)Nc3c(C)cccc3C(C)C)c(Cl)cc21 | – | inactive: -1.26% |
| O=C(N/N=C/c1ccc(-c2ccc(Cl)c(C(=O)O)c2)o1)c1cc2c(ccc3ccccc32)o1 | active: 39.8 µM | – |
| CCCCC(=O)Nc1c(C(=O)N2CCN(c3ccccc3)CC2)oc2ccccc12 | – | inactive: -15.8% |
| CCc1cccc(C)c1NC(=O)C1CCN(S(=O)(=O)c2cccc3nonc23)CC1 | active: 89.1 µM | – |
| CCOC(=O)c1ccc(-c2c(-c3cc(OC)c(OC)c(OC)c3)noc2C)cc1F | inconclusive: 56.2 µM [inhibitor, partial curve, poor fit] | – |
| O=[N+]([O-])c1ccc(-c2ccc(/C=N/n3cnnc3)o2)c(Br)c1 | inconclusive: 50.1 µM [inhibitor, partial curve, poor fit] | – |
| FC(F)(F)C1=Nc2cccc3cccc(c23)N1 | active: 50.1 µM | – |
| O=C1/C(=C/c2ccc(O)c(O)c2)Oc2cc(O)ccc21 | inconclusive: 35.5 µM [inhibitor, full curve] | – |
| CCCCNc1c2c3c(cccc3n(C)c1=O)C(=O)c1ccccc1-2 | inconclusive: 89.1 µM [inhibitor, partial curve, poor fit] | – |
| Cc1ccc(C(=O)/C=C/c2cc(Br)cc(Br)c2O)o1 | inconclusive: 17.8 µM [inhibitor, single point] | – |
| CCc1ccc2nc(NC(=O)CSCc3c(C)noc3C)sc2c1 | inconclusive: 50.1 µM [inhibitor, partial curve, poor fit] | – |
| O=c1c2ccccc2sn1-c1nccs1 | inconclusive: 89.1 µM [inhibitor, single point] | – |
| O=C(COC(=O)c1ccccc1OCCOc1ccccc1)Nc1ccccc1Br | – | inactive: 14.8% |
| O=c1oc2ccc(Cl)cc2nc1/C=C(\O)c1cccs1 | inconclusive: 50.1 µM [inhibitor, partial curve] | – |
